Assay results taken from the RNAGym collection of RNA variant scans (doi:10.1073/pnas.2313332121).
This sample is rich in variants without activity.

B1: TPR 5TU (parent)
chain: GGAUCUUCUCGAUCUAACAAAAAAGACAAAUCUGCCACAAAGCUUGAGAGCAUCUUCGGAUGCAGAGGCGGCAGCCUUCGGUGGCGCGAUAGCGCCAACGUUCUCAACUAUGACACGCAAAACGCGUGCUCCGUUGAAUGGAGUUUAUCAUG

Variants of: B1
Assay: polymerase ribozyme fitness, log enrichment relative to wild type (log ratio); higher = more active; in vitro selection for triplet polymerase activity
Procedure, shortened: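 A single round of triplicate in vitro selection, including frozen incubation at −7 °C, was applied to PCR-built, transcribed mutant libraries of each subunit of a heterodimeric triplet polymerase ribozyme. Illumina sequencing of input and output libraries retained genotypes with ≥10 input reads and ≥1 read per output. Fitness is the base-2 logarithm of genotype enrichment divided by wild-type enrichment, from inverse-variance-weighted replicate averages.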

Row | Variant | polymerase ribozyme fitness (log ratio)
1 | A52U C87A U146C | ≤ -4.2
2 | A52U C93G U111A A113U | ≤ -4.2
3 | A52U C95A C103G C116G G133U | ≤ -4.2
4 | A52U C95U C99G A121C | ≤ -4.2
5 | A52U C96U U101G U145G | -4.1
6 | A52U C118U U146G | -3.62
7 | A52U G59A A73U C85A G86A C131A U145G | ≤ -4.2
8 | A52U G59U G83A U90G U111G A113G G141A | ≤ -4.2
9 | A52U G67U C85U C105G C114A A147C | ≤ -4.2
10 | A52U G67U G68U A91U G141C | ≤ -4.2
11 | A52U G74A A89U A106G A119U A120U A122G | ≤ -4.2
12 | A52U G74A C76U U102A C103A | ≤ -4.2
13 | A52U G74C C96A A110G | ≤ -4.2
14 | A52U G74U G92A G141C A142C U146G | ≤ -4.2
15 | A52U G80A | -3.35
16 | A52U G81U C132U G143A | ≤ -4.2
17 | A52U G83A U90C A106U U127A | ≤ -4.2
18 | A52U G83C A106U | ≤ -4.2
19 | A52U G88C | ≤ -4.2
20 | A52U U55A C85A U111G C125U G141C U146C | ≤ -4.2
21 | A52U U55A G67A U104G | ≤ -4.2
22 | A52U U61G A91G C96A G117C | -3.76
23 | A52U U77G C85A C114G C118G C149G | ≤ -4.2
24 | A52U U139G U144C | -1.12

Row | Variant | polymerase ribozyme fitness (log ratio)
25 | U53A A60U C63U C75U U77G C93G A122G C149G U151A | ≤ -4.2
26 | U53A A60U U61A C69G C96U | -3.74
27 | U53A A60U U61G C72G G86U C108G A120U | ≤ -4.2
28 | U53A A73G G86A C93U C95A A97U C114U U151G | ≤ -4.2
29 | U53A A89U | -0.481
30 | U53A A98G U101G | -1.25
31 | U53A A106U | -1.9
32 | U53A A110G U145A | ≤ -4.2
33 | U53A A115G | -0.769
34 | U53A A137U | ≤ -4.2
35 | U53A A150C | -3.56
36 | U53A C54A A91U | ≤ -4.2
37 | U53A C54A G58A C85U | -0.519
38 | U53A C54U | -0.319
39 | U53A C54U G70U G86U | ≤ -4.2
40 | U53A C57U A60G C95U U104C A110C | ≤ -4.2
41 | U53A C75G C103A G136U U144C | ≤ -4.2
42 | U53A C76G | ≤ -4.2
43 | U53A C76G C79A G92C C108U G143U | ≤ -4.2
44 | U53A C76G U90C U145C | ≤ -4.2
45 | U53A C79A G92A C105U A138U A150U | ≤ -4.2
46 | U53A C79G G83A G100A A121C | ≤ -4.2
47 | U53A C85U | -1.4
48 | U53A C87A | ≤ -4.2

Row | Variant | polymerase ribozyme fitness (log ratio)
49 | U53A C93U U130G | ≤ -4.2
50 | U53A C96A C129G | -3.82
51 | U53A C96U C103U | -1.14
52 | U53A C96U C105G G112C U146C | ≤ -4.2
53 | U53A C103A A137G | ≤ -4.2
54 | U53A C118G U144C | -1.81
55 | U53A C125A G141C | ≤ -4.2
56 | U53A G58A C69G G88C A106U A122G | ≤ -4.2
57 | U53A G58C | -1.52
58 | U53A G58C A73U C95A | ≤ -4.2
59 | U53A G58C A150U | 0.575
60 | U53A G59A A60C A107G A121G U146A | ≤ -4.2
61 | U53A G59A G84U U109C U134A | ≤ -4.2
62 | U53A G62A C76U C85G U111G | ≤ -4.2
63 | U53A G62U G67C C72U C93U C114A C125U | ≤ -4.2
64 | U53A G65U G83C C103U A110G U111G G126A | ≤ -4.2
65 | U53A G67U C93A | ≤ -4.2
66 | U53A G68C C85U G92U A119C | ≤ -4.2
67 | U53A G68U C76G U130A C132U G136A A142U | ≤ -4.2
68 | U53A G71A A113G | ≤ -4.2
69 | U53A G71U G86A G88A A89G U90C | ≤ -4.2
70 | U53A G80U C96A G143A U146C C149G | ≤ -4.2
71 | U53A G81C C87U C123A | -1.74
72 | U53A G83C C125A G141U | ≤ -4.2

Row | Variant | polymerase ribozyme fitness (log ratio)
73 | U53A G88C | ≤ -4.2
74 | U53A G133A U135C G136U A147C | ≤ -4.2
75 | U53A G136A A137U U145C | ≤ -4.2
76 | U53A G143A U146C | -2.83
77 | U53A G143C | -2.05
78 | U53A U55A C72U A89C U109C | ≤ -4.2
79 | U53A U55A G83U C123A G128U A147U | ≤ -4.2
80 | U53A U55A U102G U111A C129U | ≤ -4.2
81 | U53A U55G U61A C85U A106U A147C | ≤ -4.2
82 | U53A U56A C85U G92C A98C C123U G124U G126C A142U | ≤ -4.2
83 | U53A U56A C93U G133C G140U U148A | ≤ -4.2
84 | U53A U56C G141U | -0.733
85 | U53A U56G | -1.11
86 | U53A U56G G71U G140U | ≤ -4.2
87 | U53A U61A U109G | -2.25
88 | U53A U77G U148A A150C | ≤ -4.2
89 | U53A U109G | -0.777
90 | U53A U148G | -4.01
91 | U53C A64G U90C G117C | ≤ -4.2
92 | U53C A97U G136A C149G | ≤ -4.2
93 | U53C C54G A66G C96A C125A A137C U144G | ≤ -4.2
94 | U53C G58A G62C C85G | ≤ -4.2
95 | U53G A60C U61A G74C U78G G92U A98U A106G | ≤ -4.2
96 | U53G A60G C87A | ≤ -4.2

Row | Variant | polymerase ribozyme fitness (log ratio)
97 | U53G A89G C93U | ≤ -4.2
98 | U53G A110G G117A U148A | ≤ -4.2
99 | U53G C54G | ≤ -4.2
100 | U53G C54U C96U A98G G133C G141U | -4.03
101 | U53G C79G C87A A89G | ≤ -4.2
102 | U53G C79U A89U | ≤ -4.2
103 | U53G C87U A113U C116A G140U | ≤ -4.2
104 | U53G C93A C95A A97U A98C G100U U130G G140U | ≤ -4.2
105 | U53G C93A C103G | ≤ -4.2
106 | U53G C93G C116G G124U G141A U148G | ≤ -4.2
107 | U53G C95U C105G G124A G152A | ≤ -4.2
108 | U53G C103G | ≤ -4.2
109 | U53G C118U | -1.68
110 | U53G G58A U82A A115U C116A | ≤ -4.2
111 | U53G G62A A64C | ≤ -4.2
112 | U53G G71A A110G | ≤ -4.2
113 | U53G G74A A142C | ≤ -4.2
114 | U53G U55A A60U C75G G94C | ≤ -4.2
115 | U53G U55G G86U C108U | ≤ -4.2
116 | U53G U77G C129A A147C | ≤ -4.2
117 | U53G U127A U135C | ≤ -4.2
118 | U53G U135C | -3.23
119 | C54A A60U C79G G83A C99A C129G A138C | ≤ -4.2
120 | C54A A64G U111C G133U G140A G143A | ≤ -4.2

Row | Variant | polymerase ribozyme fitness (log ratio)
121 | C54A A66G A89U | ≤ -4.2
122 | C54A A91G C93U U144A C149G U151G | ≤ -4.2
123 | C54A A97U | -1.79
124 | C54A A150G | -3.37
125 | C54A C57G | -3
126 | C54A C75G C85U U90A C123U | ≤ -4.2
127 | C54A C76G A89U G92U U130G C149A U151A | ≤ -4.2
128 | C54A C76U G88C U135A A138C | ≤ -4.2
129 | C54A C79A C87U U144C A150G U151A | ≤ -4.2
130 | C54A C79A G100A | ≤ -4.2
131 | C54A C79G G128A | ≤ -4.2
132 | C54A C85G C95G C114A U134G | ≤ -4.2
133 | C54A C85G U127C U135G | ≤ -4.2
134 | C54A C87U | -3.48
135 | C54A C96G C103U C116A G136U | -4.12
136 | C54A C96G U139A U151G | ≤ -4.2
137 | C54A C99U | -1.85
138 | C54A C103G A119G A138C | ≤ -4.2
139 | C54A C125U | -3.73
140 | C54A C149G | -3.71
141 | C54A G58A G65C A91C U139G | ≤ -4.2
142 | C54A G58A G94A A98U | -0.552
143 | C54A G58C | -1.45
144 | C54A G58C A91U C95G A142U | ≤ -4.2

Row | Variant | polymerase ribozyme fitness (log ratio)
145 | C54A G59C G83U C87A C105A C108G | ≤ -4.2
146 | C54A G65C | ≤ -4.2
147 | C54A G65U G88U U135A U145A | ≤ -4.2
148 | C54A G67C G80A G84A U135A | ≤ -4.2
149 | C54A G67U U90C C95G U127C | ≤ -4.2
150 | C54A G74A G86C U102G A115C G126C | ≤ -4.2
151 | C54A G81A C87U C96A | ≤ -4.2
152 | C54A G81C | -0.408
153 | C54A G88U | ≤ -4.2
154 | C54A G88U C93U | ≤ -4.2
155 | C54A G92A A110U C116U G133C | ≤ -4.2
156 | C54A G92U U135G | -4.08
157 | C54A G94A A138U U145G | ≤ -4.2
158 | C54A G94U A97C C125G | -2.89
159 | C54A G94U G140A | ≤ -4.2
160 | C54A G136A | -0.852
161 | C54A U55A A60C C93U A119C U148G | ≤ -4.2
162 | C54A U55A A106G G141A G143C C149G | ≤ -4.2
163 | C54A U55A C57A | 0.336
164 | C54A U55G G92A | ≤ -4.2
165 | C54A U56C G71C G88U C96G A120U C125A G141A | ≤ -4.2
166 | C54A U56G G88C C96U | ≤ -4.2
167 | C54A U61A G74A | ≤ -4.2
